# According to the antibiotic and cytotoxicity screens of Wong et al. (2023):
# This is one part of the list.
# System: HSkMC (human skeletal muscle cells)
# Assay: cytotoxicity call (relative viability < 0.9)
# Details: 10 µM
row,SMILES,cytotoxicity call
1,C[C@H]1CN([C@@H](C)CO)C(=O)c2cc(/C=C/c3ccccc3)cnc2O[C@@H]1CN(C)C(=O)C1CCOCC1,inactive
2,COCCOC(=O)N1C(=O)[C@@]2(c3cc(C#CC4(O)CCCCCC4)ccc31)[C@H](c1ccc(O)cc1)N1[C@H](c3ccccc3)[C@H](c3ccccc3)OC(=O)[C@H]1[C@@H]2C(N)=O,inactive
3,COCC(=O)N(C)C[C@H]1Oc2cc(C#Cc3ccccc3)ccc2S(=O)(=O)N([C@@H](C)CO)C[C@H]1C,inactive
4,Cc1noc(C)c1NC(=O)Nc1ccc2c(c1)C(=O)N([C@H](C)CO)C[C@H](C)[C@H](CN(C)Cc1ccc3c(c1)OCO3)OCCCC[C@@H](C)O2,inactive
5,C[C@@H]1CN([C@@H](C)CO)C(=O)c2cccc(NC(=O)c3cnccn3)c2O[C@H]1CN(C)S(=O)(=O)c1cn(C)cn1,inactive
6,Cc1ccc(S[C@]2(C(=O)NCc3ccccc3)CC(=O)N(Cc3cc(C(F)(F)F)cc(C(F)(F)F)c3)[C@@H]2c2ccc(CO)cc2)cc1,inactive
7,CO[C@H](CN(C)S(=O)(=O)c1ccc(Cl)cc1)[C@H](C)CN([C@@H](C)CO)S(=O)(=O)c1cccc(Cl)c1,inactive
8,C[C@H](CO)N1C[C@H](C)[C@@H](CN(C)S(=O)(=O)c2cccs2)Oc2c(NC(=O)Cn3cnnn3)cccc2C1=O,inactive
9,C[C@H](CO)N1C[C@H](C)[C@@H](CN(C)Cc2ccccc2)OCCCC[C@H](C)Oc2ccc(NC(=O)Cc3ccccc3)cc2C1=O,inactive
10,C[C@H](CO)N1C[C@H](C)[C@@H](CN(C)C(=O)c2ccncc2)Oc2cc(C#C[C@@H](C)O)ccc2S1(=O)=O,inactive
11,Cc1noc(C)c1NC(=O)N(C)C[C@H]1Oc2ccc(NC(=O)C3CC3)cc2CC(=O)N([C@H](C)CO)C[C@H]1C,inactive
12,C[C@@H]1CN([C@H](C)CO)C(=O)CCCn2cc(nn2)CO[C@@H]1CN(C)S(=O)(=O)c1ccc(-c2ccccc2)cc1,inactive
13,C[C@H]1CN([C@@H](C)CO)C(=O)c2cc(NC(=O)CCCN(C)C)ccc2O[C@@H]1CN(C)Cc1ccc(Oc2ccccc2)cc1,inactive
14,Cc1noc(C)c1NC(=O)N(C)C[C@H]1OCCCC[C@@H](C)Oc2ccc(NC(=O)c3ccccc3)cc2C(=O)N([C@H](C)CO)C[C@@H]1C,inactive
15,C[C@H]1CN([C@@H](C)CO)S(=O)(=O)c2ccc(C#Cc3ccc(F)cc3)cc2O[C@@H]1CN(C)S(C)(=O)=O,inactive
16,C[C@@H]1CN([C@@H](C)CO)C(=O)c2cc(NS(=O)(=O)c3cccs3)ccc2O[C@@H]1CN(C)Cc1ccncc1,inactive
17,CN1CCN(C(=O)C[C@H]2CC[C@@H]3[C@H](COC[C@@H](O)CN3S(=O)(=O)c3cccc(Cl)c3)O2)CC1,inactive
18,CCCN1C(=O)[C@@]2(c3ccc([N+](=O)[O-])cc3)CC(=O)N(CC34CC5CC(CC(C5)C3)C4)[C@@H]2c2ccc(CO)cc21,inactive
19,COc1ccc(NC(=O)N(C)C[C@@H]2Oc3c(NC(=O)c4ccc(-c5nccs5)cc4)cccc3C(=O)N([C@@H](C)CO)C[C@H]2C)cc1,inactive
20,COc1ccc(S(=O)(=O)Nc2cccc3c2O[C@@H](CN(C)S(=O)(=O)c2ccccc2)[C@@H](C)CN([C@H](C)CO)C3=O)cc1,inactive

row,SMILES,cytotoxicity call
1,O=C(C[C@H]1CC[C@@H]2[C@H](COC[C@H](O)CN2S(=O)(=O)c2ccccc2F)O1)NCc1ccccc1F,inactive
2,CC/C=C/C(=O)N(C[C@@H]1CCCO1)[C@@H]1CC(C(=O)NCCO)=C[C@H](Oc2c(I)cc(CO)cc2OC)[C@H]1O,inactive
3,Cc1noc(C)c1NC(=O)N(C)C[C@@H]1OCCCC[C@@H](C)Oc2ccc(NC(=O)Nc3ccc(F)cc3)cc2C(=O)N([C@H](C)CO)C[C@H]1C,inactive
4,COc1cccc(S(=O)(=O)N[C@@H]2CC[C@H](CC(=O)NC3CCC3)O[C@@H]2CO)c1,inactive
5,Cc1noc(C)c1NC(=O)Nc1ccc2c(c1)C(=O)N([C@@H](C)CO)C[C@@H](C)[C@@H](CN(C)C(=O)c1ccccc1)OCCCC[C@@H](C)O2,inactive
6,C[C@@H]1CN([C@@H](C)CO)C(=O)CCCn2cc(nn2)CO[C@H]1CN(C)S(=O)(=O)c1ccc2c(c1)OCCCO2,inactive
7,Cc1noc(C)c1NC(=O)Nc1ccc2c(c1)CC(=O)N([C@H](C)CO)C[C@@H](C)[C@H](CN(C)C(=O)NC(C)C)O2,inactive
8,Cc1ncc(COP(=O)(O)O)c(C=O)c1O,inactive
9,O=C(C[C@H]1CC[C@@H]2[C@H](COC[C@@H](O)CN2C(=O)Nc2cccc(Cl)c2)O1)NCc1ccccc1F,inactive
10,COCC(=O)N1C[C@@H](C)[C@H](OC)CN(C)C(=O)c2ccc(NC(=O)c3ccc(F)cc3)cc2OC[C@@H]1C,inactive
11,CO[C@@H](CNS(C)(=O)=O)c1ccsc1,inactive
12,Cl.Clc1ccc(Cn2c(CN3CCCC3)nc3ccccc32)cc1,inactive
13,C[C@@H]1CCCCO[C@@H](CN(C)Cc2ccccc2)[C@@H](C)CN([C@@H](C)CO)C(=O)c2cc(NC(=O)c3ccccc3)ccc2O1,inactive
14,C[C@@H]1CN([C@@H](C)CO)C(=O)c2cccc(NC(=O)Nc3ccc4c(c3)OCO4)c2O[C@@H]1CN(C)Cc1ccc(-c2ccccc2)cc1,active
15,C[C@H](CO)N1C[C@H](C)[C@H](CN(C)C(=O)Nc2ccc(C(F)(F)F)cc2)Oc2ccc(NC(=O)Nc3ccc(F)cc3)cc2C1=O,active
16,N#C[C@@H]1[C@@H](c2ccc(C#Cc3ccccn3)cc2)[C@H](CO)N1C(=O)CN1CCOCC1,inactive
17,Cc1ccc(C(=O)Nc2ccc(Nc3ccccc3)cc2)c(C)c1,inactive
18,N[C@@]1(C(=O)O)CO[C@H]2[C@H](C(=O)O)[C@H]21,inactive
19,Cc1noc(C)c1NC(=O)N(C)C[C@H]1Oc2c(NC(=O)c3ccc(-c4nccs4)cc3)cccc2C(=O)N([C@H](C)CO)C[C@@H]1C,inactive
